Broadly, the inhibition is the relative decrease from the control value, in per cent.

This is one part of the list. These are further read-outs of the screen, such as a control signal, another cell line or another target. No call is given for them. The list favours compounds with an active or inconclusive main result.

Here are results for 109 compounds from PubChem BioAssay AID434955 (Southern Research Specialized Biocontainment Screening …, 2010).

This experiment is described as follows: beta-lactam sensitization of Mtb H37Rv, H37Rv (AID 434955).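 Also: growth measured after seven days incubation then overnight dye step; 0% = bacteria only wells and 100% = bacteria with antibiotic.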 The conditions noted are these: M. tuberculosis H37Rv growth with meropenem, percent inhibition; measured here: primary screen without meropenem; at 25 µM.
Take `COC(=O)CC1Oc2ccc(C)cc2NC1=O` (centres undefined): the inhibition is -7.83%. To `CC(C)(C)C(=O)Nc1ccnn1C1CCN(C(=O)c2cccc(Cl)c2)CC1` belongs 5.61%.

Turning to `C(=C\c1ccccc1)/CSc1nnc(-c2cccnc2)n1Cc1ccco1`, the inhibition was -0.86%. For `COc1ccc(-c2cccc(NC(=O)COc3ccc(Cl)cc3)c2)nn1`, the inhibition stood at 5.59%.

In the case of `Cc1csc(=O)n1CC(=O)OCC(=O)Nc1cc(Cl)ccc1[N+](=O)[O-]`, the inhibition was -1.65%. The value for `CC(C)Cc1ccc(CN2CCCC(NC(=O)c3cccc(-n4cnnc4)c3)C2)cc1` (centres undefined) was 40.3%; that for `Cc1ccc(S(=O)(=O)Nc2cccc(-n3cnnn3)c2)cc1` was 0.12%; that for `O=c1oc(-c2ccccc2)nc2sc3c(c12)CCC3` was 36.8%.

Regarding `Cn1c(C(=O)NCCN2CCOCC2)cc2c(=O)n(C)c3ccccc3c21`, the inhibition was -0.81%. The value for `COc1ccc(NC(=O)c2ccc3c(c2)C(=O)N(CC2CCCO2)C3=O)cc1O` (centres undefined) was -20.6%; that for `O=C(CC(=O)c1ccccc1)Nc1ccc2c(c1)OCCO2` was 33.6%. With `Cc1cc(C)cc(NS(=O)(=O)c2ccc3c(c2)C(C)(C)C(=O)N3C)c1`, the inhibition was -7.19%. For the compound `CNC(=O)c1c(NC(=O)c2ccco2)sc2c1CCC2`, the inhibition was found to be 8.18%.

Turning to `Cn1cccc1/C=C1\C(=O)NC(=O)N(Cc2ccccc2)C1=O`, the inhibition was found to be 3.31%. For the compound `COc1ccccc1N1CCN(S(=O)(=O)c2c(C)[nH]c(C)c2C(=O)N2CCCC2)CC1`, the inhibition was -5.69%. `CCC(=O)Nc1cccc(-c2ccc(N3CCN(C)CC3)nn2)c1`: the inhibition amounted to 0.04%. To `COC(=O)Nc1c(-c2ccccc2)nc2ccccn12` belongs 8.08%; to `COc1cccc(NS(=O)(=O)NC(=O)c2c[nH]c3ccccc23)c1`, 0.41%. The value for `COc1ccc(S(=O)(=O)NCc2csc(C)n2)cc1OC` was 1.35%. To `O=C1CCC(C(=O)N2CCCCO2)CN1Cc1ccc(Cl)cc1` (centres undefined) belongs -10%. With `O=C(NC1CCS(=O)(=O)C1)c1ccc(S(=O)(=O)N2CCCC2)cc1` (centres undefined), the inhibition came to 2.55%. The value for `COc1ccc(/C=C/c2cc(=O)c3cc(Cl)ccc3o2)cc1` was 74.9%; that for `COc1cc(C2=NOC(C(=O)NCc3ccc(F)cc3)C2)cc(OC)c1OC` (centres undefined) was -4.03%. `Cc1ccc(C(C)C)c(OCc2ccc(C(=O)N/N=C/c3ccc(O)c(O)c3)cc2)c1`: the inhibition is -3.22%.

As for `Cn1nc(-c2ccccc2F)c2cc(C(=O)N3CCN(C(=O)c4ccco4)CC3)sc21`, the inhibition was found to be 28.1%. The value for `CC(=O)c1cc2c(cc1NC(=O)CN1Cc3ccccc3C1=O)OCO2` was 0.23%. Regarding `CCn1c(SCC(=O)N2CC(C)OC(C)C2)nc2c([nH]c3ccccc32)c1=O` (centres undefined), the inhibition amounted to 5.37%. `COc1ccc(S(=O)(=O)N2CCOCC2)cc1C(=O)Nc1ccc2c(c1)OCO2`: the inhibition came to 5.15%. Take `CC(=O)Nc1ccc(SCC(=O)N(CCC#N)c2cc(C)cc(C)c2)cc1`: the inhibition is -1.3%. To `Cc1nc2nc3c(c(=O)n2[nH]1)CCC3` belongs -2.58%; to `CC1CCc2nn(CC(=O)Nc3ccc(F)cc3F)cc2C1` (centres undefined), -11.6%.

`Cc1ccccc1-c1ccc(Nc2ccc(C(=O)N3CCOCC3)cc2)nn1`: the inhibition stood at 12.2%. As for `O=C(O)c1ccc(Nc2ncnc3ccccc23)cc1`, the inhibition was found to be 1.33%. To `CC(=O)c1ccc(CCCC(=O)O)cc1` belongs -6.03%; to `CCCCc1nc2cc(C(=O)NCCc3cnn(C)c3)ccc2o1`, 0.28%; to `CCOc1ccc(/C=N/n2c(C3CCCCC3)n[nH]c2=S)cc1`, 4.46%. To `Fc1ccc(-c2csc(NC(=S)Nc3ccccc3)n2)cc1` belongs 9.44%. For the compound `CCCCOC(=O)CSc1nnc(N)s1`, the inhibition is -6.9%. Turning to `Cc1ccc(C(=O)NN2C(=O)/C(=C/c3cccn3C)SC2=S)cc1`, the inhibition was 5.45%.

`Cc1cc(OCc2cc(C(=O)NCc3cc(C(C)C)no3)no2)cc(C)c1Cl`: the inhibition came out at 5.68%.

On to `CCOC(=O)C1(c2ccccc2)CCN(CC(=O)Nc2cccc3ccccc23)CC1`, for which the inhibition worked out at 5.62%.

For the compound `CCCCCNCc1cccc(Br)c1`, the inhibition was -8.36%. In the case of `O=C(CN1C(=O)COc2ccc(Cl)cc21)Nc1ccc2c(c1)OCCO2`, the inhibition was -2.91%.

As for `COc1cc(CO)cc(Br)c1OCC(=O)N1CCCCC1`, the inhibition is -3.01%. Turning to `O=C(NC(c1ccccc1)c1c(O)ccc2ccccc12)c1ccccc1Cl` (centres undefined), the inhibition amounted to 4.48%.

Turning to `CCn1c(=O)cc(SCC(=O)NCCCN2CCN(c3ccccc3F)CC2)c2ccccc21`, the inhibition is 3.02%.

Turning to `Cc1cc(C)n(CCCNCC(O)c2ccccc2)n1` (centres undefined), the inhibition was -3.05%.

As for `O=C(NCCC1=CCCCC1)c1ccc(Cl)c([N+](=O)[O-])c1`, the inhibition turned out to be 43.4%. To `CCOC(=O)c1[nH]c(C)c(C(=O)c2ccc(C)cc2)c1C` belongs 1.18%; to `CC(=C/c1ccccc1)/C=N/Nc1nc(N2CCCCC2)nc(N2CCCCC2)n1`, 77.7%. As to `Cc1nn(Cc2ccccc2)c(Cl)c1C(=O)OCC(=O)NC(=O)NC12CC3CC(CC(C3)C1)C2`, the inhibition came out at 3.45%.

Turning to `C=C(C)Cn1c(N(CCO)Cc2ccccc2)nc2c1c(=O)[nH]c(=O)n2C`, the inhibition is -7.88%.

Regarding `c1ccc2nc(-c3nc4ccccc4o3)ccc2c1`, the inhibition was determined as 27.5%.

On to `O=c1[nH]c(/C=C/c2cccc(Br)c2)nc2ccccc12`, for which the inhibition was found to be 9.9%.

With `CCOC(=O)Cc1csc(N/N=C\c2ccc(N(C)C)cc2)n1`, the inhibition was -6.97%. `Cc1nn(-c2ccccc2)c2nc(N)c(C#N)c(-c3ccc(O)c(O)c3)c12`: the inhibition worked out at 5.12%. To `CCOc1ccccc1-n1c(N)c(C(N)=O)sc1=S` belongs -6.15%; to `CCO[C@H]1OC(C(=O)NCc2nc3ccccc3[nH]2)=C[C@@H](c2cn(C(C)=O)c3ccccc23)[C@@H]1CCCO`, 18.8%; to `COc1ccc(N(CC(=O)N2c3ccccc3CC2C)S(=O)(=O)c2c(C)noc2C)cc1` (centres undefined), -1.26%. To `CCCNC(=O)N[C@@H](CCSC)C(=O)OC` belongs 3.02%; to `COCCNC(=O)c1cn(C)c(=O)c2cc(OC)c(OC)cc12`, 2.41%.

As for `Cc1ccc2[nH]cc(CCNC(=O)Nc3ccccc3)c2c1`, the inhibition was -0.74%. As for `CN1CCN(c2ccccc2NC(=O)c2ccc(-c3ccc(Cl)c(Cl)c3)o2)CC1`, the inhibition is 5.01%. The value for `COc1ccc(NC(=O)C(Cc2ccccc2)n2cccc2)c(OC)c1` (centres undefined) was 46%; that for `COc1ccc(C(=O)Nc2oc(-c3ccccc3)c(-c3ccccc3)c2C#N)cc1OC` was 33.9%. Take `Cc1cccc(/C=C/c2onc(C)c2S(=O)(=O)N2CCC(C(=O)NC(C)C)CC2)c1`: the inhibition is -9.58%. To `COc1ccc(CCN(Cc2cc3cccc(C)c3[nH]c2=O)C(=O)NC2CCCCC2)cc1OC` belongs -5.94%; to `CCc1ccccc1-n1nnnc1SCC(=O)Nc1ccc(N2CCN(C)CC2)cc1`, 53.4%. For `CCCOC(=O)C1C2C=CC3(CN(c4cccc(Cl)c4)C(=O)C13)O2` (centres undefined), the inhibition was -1.6%. Turning to `Cc1ccc(CN2CC34C=CC(O3)C(C(=O)NCc3ccco3)C4C2=O)cc1` (centres undefined), the inhibition is -4.16%. `COc1ccc(-c2nnc(SCC(=O)NC(C)c3ccccc3)o2)cc1` (centres undefined): the inhibition came to 0.93%. The value for `COC(=O)/C=C1/S/C(=N/N=C/c2ccc(N(C)C)cc2)NC1=O` was -3.82%; that for `CC1CCc2c(sc(NC(=O)c3ccc(Cn4cc(Br)cn4)o3)c2C(N)=O)C1` (centres undefined) was 3.93%; that for `Cn1nc(-c2ccc(C(=O)Nc3cccnc3)cc2)c2ccccc2c1=O` was 4.1%. To `CCOc1ccccc1CN1CCNC(=O)C1CC(=O)NCCc1ccccn1` (centres undefined) belongs 0.15%; to `CCn1c(SCC(=O)NC2CC2)nnc1-c1ccc(C)cc1`, -8.79%. The value for `O=C(Nc1cccc(C(F)(F)F)c1)C1(c2ccccc2)CC1` was -7.44%; that for `CC(=O)c1ccc(OC(=O)N(c2ccccc2)c2ccccc2)cc1` was 45.5%; that for `CC1Cc2ccccc2N1C(=O)c1cccnc1` (centres undefined) was -0.27%. With `CC1CCCCN1S(=O)(=O)c1ccc(C(=O)Nc2ccccc2-c2nc3ccccc3[nH]2)cc1` (centres undefined), the inhibition is -7.63%. To `Cc1cccc(N(C)S(=O)(=O)c2ccc3c(c2)CCC(=O)N3)c1` belongs -2.29%. The value for `CN(C)S(=O)(=O)c1c(Cl)cccc1Cl` was -11.2%; that for `CCCC(=O)NCCCc1nc2ccccc2n1CCC` was -0.67%. To `COc1cc(C(=O)COC(=O)c2cnc(C)cn2)ccc1OC(F)F` belongs -9.51%; to `CSCCC(NC(=O)c1ccco1)C(=O)OCC(=O)Nc1sccc1C#N` (centres undefined), -7.44%.

Take `CCOC(=O)c1[nH]c(C)c(/C(O)=C2\C(=O)C(=O)N(CCN(C)C)C2c2ccc(C)o2)c1C` (centres undefined): the inhibition was determined as 2.75%. For `CCCC(=O)Nc1ccc(C(=O)Nc2nnc(COC)s2)cc1`, the inhibition was -8.87%.

For `Clc1ccccc1Nc1ncnc2c1nnn2Cc1ccccc1`, the inhibition came to 3.84%. To `CN1C/C(=N\S(=O)(=O)c2ccccc2)N(C)C1=O` belongs 38%; to `Cc1ccnc(SCCn2c(N3CCC(C)CC3)nc3c2c(=O)n(C)c(=O)n3C)n1`, -4.45%; to `CCOC(=O)N1CCN(C(=O)c2cc(COc3cccc(C(C)=O)c3)on2)CC1`, 1.88%. In the case of `Cc1cc(OCC(=O)O)c2ccccc2n1`, the inhibition was -2.82%. To `O=C(/C=C/c1ccc([N+](=O)[O-])cc1)NCCSc1ccccc1` belongs 2.6%. Regarding `COc1ccc(CN2C(=O)c3cccnc3C2=O)cc1S(=O)(=O)N1CC(C)Oc2ccccc21` (centres undefined), the inhibition is -4.18%. In the case of `Cc1onc(-c2c(Cl)cccc2Cl)c1/C(N)=N/OC(=O)C1CC1`, the inhibition amounted to 39.6%. The value for `O=C1CC(=O)Nc2cc(S(=O)(=O)Nc3ccc(F)cc3Cl)ccc2N1` was -6.64%; that for `Cc1ccc(NC(=O)/C=C/C(=O)O)c([N+](=O)[O-])c1` was -1.32%. To `COC(=O)CCN1CCC(C(N)=O)CC1` belongs -7%; to `CN1C(=O)SC(Nc2ccccc2C(=O)O)C1=O` (centres undefined), -2.27%; to `CSc1ccc(C2C(C#N)=C(N)Oc3c2ccc(=O)c2c(C)oc(C)c32)cc1` (centres undefined), 42.4%.

In the case of `COc1ccc(CNC(=O)c2ccc(CS(=O)(=O)c3ccc(Br)cc3)o2)cc1`, the inhibition turned out to be 5.16%. The value for `Cc1sc2ncnc(SCC(=O)NC3CC3)c2c1C` was -2.24%; that for `COC1CCN(Cc2c(C(=O)N3CCc4ccccc4C3)nc3ccc(Cl)cn23)CC1` was -3.21%; that for `CC(=O)c1cccc(OCc2cc(C(=O)NC(C)Cc3cccnc3)no2)c1` (centres undefined) was 0.93%.

On to `CCOc1ccc(Cn2nnc(C(=O)Nc3cc(C)cc(C)c3)c2N)cc1`, for which the inhibition is -16%. Take `O=C(Nc1cccc(-c2cccc(Cl)c2)c1)C1CCN(Cc2ccc(CO)o2)CC1`: the inhibition worked out at 6.27%. As for `CC(=O)c1sc(N/N=C\c2ccc(Br)cc2)nc1C`, the inhibition stood at 1.07%. The value for `CCOc1ccc(-c2nc(CN3CCCC(C(=O)N4CCOCC4)C3)c(C)o2)cc1` (centres undefined) was 2.65%.

Regarding `CCOC(=O)N1CCN(C(=O)CSCC(=O)Nc2nc(-c3ccc(Cl)s3)cs2)CC1`, the inhibition is -7.59%.
